Laboratory results: the BET-seq Pho4 binding data (Le et al. 2018)
This is one part of the list. The energies were worked out here from pooled read counts, against the library average; single values are noisy.

biological target: T1, Pho4 (S. cerevisiae) (UniProt P07270); assay: relative binding free energy (BET-seq); higher = weaker binding; settings: reference: library average
T1 sequence: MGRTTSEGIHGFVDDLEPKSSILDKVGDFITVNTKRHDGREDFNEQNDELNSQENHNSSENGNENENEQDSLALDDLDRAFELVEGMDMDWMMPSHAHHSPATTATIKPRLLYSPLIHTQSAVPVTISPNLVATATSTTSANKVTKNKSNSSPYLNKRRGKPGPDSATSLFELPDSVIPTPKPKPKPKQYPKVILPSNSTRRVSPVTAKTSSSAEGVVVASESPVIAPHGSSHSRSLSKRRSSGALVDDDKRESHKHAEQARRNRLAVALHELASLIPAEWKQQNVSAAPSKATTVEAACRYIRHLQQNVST

Sequence	relative binding free energy [kcal/mol]
TATCTCACGTGTTTTG	0.18
GTAATCACGTGGGTCG	-0.01
CATTTCACGTGTTTAG	0.31
AGCGGCACGTGGTGTG	-0.39
ATGGACACGTGTGTGA	-0.09
GTGTTCACGTGATTTG	0.43
GATTACACGTGTGGGC	0.22
GAGGTCACGTGTGAGC	0.36
GCGGGCACGTGTGCTG	-0.13
GTGCACACGTGTGTTT	-0.03
GTGCACACGTGGTTGG	0
AGAAGCACGTGTGTTC	0.03
GTAGTCACGTGAAAGG	0.21
TGCAACACGTGGTTGA	-0.07
CGGGGCACGTGAGAGG	0.24
TGAAACACGTGAGTGT	0.28
CGGTACACGTGGGTCT	0.06
GGCATCACGTGGGGGT	-0.08
TTGGGCACGTGGGATG	-0.07
TGTCTCACGTGGTTAG	-0.06
TGTGTCACGTGCCGGT	-0.13
TTCTTCACGTGAAGTG	0.35
ATTGTCACGTGGTGCC	0.08
AACAGCACGTGTTGGT	-0.08
GTTTACACGTGGGGAC	0.23

Sequence	relative binding free energy [kcal/mol]
GTATACACGTGTTCGT	0
GGGGGCACGTGGGGCC	-0.33
TTAAACACGTGTGAAG	0.08
ACTATCACGTGAGGGT	0.23
AAGGACACGTGCGGGT	0.03
CGTTGCACGTGGTGAA	0
AAGGTCACGTGAAGGC	0.25
GTTTGCACGTGTGAGA	0.11
GGGCACACGTGATCGG	0.19
CTTATCACGTGTGTTC	0.34
GTCGTCACGTGTACGG	0.12
AGTGTCACGTGTTACG	0.04
GGTTACACGTGTCGCG	0.24
TGGCGCACGTGTGTGG	0.03
AGGGGCACGTGCAGAG	-0.18
GGGTTCACGTGCTTCG	0.31
CATTGCACGTGAGTGT	0.13
GTTGTCACGTGAGAGC	0.23
TGCGTCACGTGGCCGG	-0.16
CGGGACACGTGTGGGA	0.05
CATAGCACGTGGAAGT	0.11
CTGAGCACGTGGTTGT	-0.18
GCTATCACGTGGGGGT	-0.04
CTATGCACGTGAGGAG	0.25
TAGTACACGTGGAAAT	0.22

Sequence	relative binding free energy [kcal/mol]
TGGTTCACGTGATAGT	0.37
CGGCTCACGTGATGGG	0.22
GGGCGCACGTGCAGTG	0.02
GCATGCACGTGGCAGG	-0.01
CTAGGCACGTGGGTCG	-0.21
TAGCGCACGTGGATAT	-0.05
TTTAGCACGTGTGCGG	-0.07
AGTTTCACGTGGTCAG	0.14
AGTTTCACGTGGATAT	0.24
ATTTACACGTGGGTCT	-0.11
GCAGGCACGTGTGGCG	0.11
CTTAGCACGTGAGTGG	0.05
TAGGGCACGTGGCGGA	-0.28
TGTTACACGTGATACT	0.28
AGTCTCACGTGTATGT	0.19
TAGGACACGTGCTTTG	-0.08
AACGACACGTGTGGTG	-0.09
TTTAGCACGTGAAGAA	0.25
GAAGTCACGTGGGGAT	0.1
GGTGTCACGTGGGCAC	-0.01
ATGAGCACGTGTAATT	0.13
CGTTTCACGTGCAGAG	0.33
TATGTCACGTGGTGCG	-0.02
TCGTTCACGTGTTAGC	0.4
GTTCGCACGTGTTGCT	0.13

Sequence	relative binding free energy [kcal/mol]
AATGTCACGTGAATAT	0.25
TTAACCACGTGATGGT	0.04
GGCAGCACGTGGTTGT	0.02
GTATGCACGTGCTTTT	0.03
ATGGGCACGTGTGGGA	-0.05
GGGACCACGTGGGTCG	-0.21
TGTGCCACGTGGGCTG	-0.18
TGTCGCACGTGATATT	0.05
GGGATCACGTGTAAGC	0.39
CTGTTCACGTGATATA	0.3
ATACGCACGTGGGGCG	-0.22
GTCTTCACGTGATGAT	0.52
CGCGGCACGTGGGATG	-0.16
TGGGACACGTGCAAGT	-0.04
TTTGACACGTGTGCTT	0.02
TGGGCCACGTGATTTA	0.06
GTGTTCACGTGTTTGT	0.35
TAATACACGTGATTGT	0.2
ATTATCACGTGAGTCA	0.53
GGGGGCACGTGCGGTA	-0.26
TGATGCACGTGTTAAT	-0.06
AGGAGCACGTGGTTTT	-0.14
GATAGCACGTGGATGT	-0.18
TGGGTCACGTGTGTAC	0.12
GGGGTCACGTGTTAAT	0.19

Sequence	relative binding free energy [kcal/mol]
ATGACCACGTGCGGGG	-0.14
TTTAGCACGTGTATAA	-0.14
GCGTGCACGTGAAATG	0.36
TGAGTCACGTGAATGA	0.23
GGTCACACGTGGTTGC	0.1
ATTCACACGTGTAGGT	-0.09
GATATCACGTGTTTTA	0.11
CGTTGCACGTGTTTTG	0.16
TGAAACACGTGTAATT	0.15
TGGTTCACGTGTGCTC	0.29
GGAAGCACGTGTGGGT	-0.14
TGGAACACGTGTATTT	-0.05
ATAGTCACGTGTTTGA	0.11
AAGAACACGTGGTAGG	0.04
TTTTACACGTGGTTGA	0.1
CTATACACGTGGGTAT	-0.14
TTGAGCACGTGATAGG	-0.02
TCATTCACGTGTGTGG	0.25
ACTTTCACGTGTATGG	0.07
TTGTTCACGTGGCGCG	0.2
TCATGCACGTGTTTTA	-0.07
TTTAACACGTGTAGAA	0.1
GTCTTCACGTGGGATT	0.32
TGATGCACGTGGGCGC	-0.19
CTATTCACGTGTGGCG	0.27

Sequence	relative binding free energy [kcal/mol]
TAGTTCACGTGCTGAA	0.33
CCTGTCACGTGTTTTT	0.18
AATGGCACGTGAAATT	0.18
TTTTCCACGTGTGAGA	0.16
TAGTGCACGTGCTGTT	-0.12
GTATGCACGTGTTGGT	0.06
GGGGGCACGTGAAGCG	0.16
GTGTTCACGTGATATT	0.42
ATTGGCACGTGTATAC	-0.22
TTAGGCACGTGGCGCA	-0.2
TTCCTCACGTGGCGGG	0.17
TGATTCACGTGTGCGG	0.13
GCGGCCACGTGAGGTG	0.24
ATTATCACGTGTAAGT	0.08
GTTTCCACGTGTTGGC	0.26
AAGGGCACGTGGCGTT	-0.12
GTGGTCACGTGCCGTG	0.16
TTGAACACGTGAGGCT	0.26
TCGGGCACGTGGTAAT	-0.07
TTTGGCACGTGACGCG	0.03
AGTGTCACGTGGGCTG	-0.11
